Reference: PubChem BioAssay (NCI)
More than one record can exist for a structure, and the calls need not agree.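 96-well plates, one dose, 48 hours. Percent growth reported; active if below 10.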 Some entries of the source have several records that differ or are many. This list holds those alone. The source may hold further records. These are repeated runs of one drug, at the concentration stated with the values; each value is one run. Brackets with × count equal records among those shown.

Tests used:
M14 melanoma = test: NCI-60 one-dose screen, 48 h (100 = growth as untreated, 0 = no growth, -100 = all killed); conditions: 25 µM
HCT-15 colon = test: as above; conditions: 0.25 µM

In the case of `COc1cccc2c1C(=O)c1c(O)c3c(c(O)c1C2=O)C[C@@](O)(C(=O)CO)C[C@@H]3OC1CC(N)C(O)C(C)O1` (stereo not given in full), the growth (M14 melanoma; runs of 1992) is reported as “active: -100 (23×), -91.6, -99.8 (4×), -99.6, -99 (2×), -96 (2×), -98.6, -85.8, -93.9 (2×), -63.3, -98.3 (3×), -60.4, -93.6, -91.9, -98 (2×), -81, -94.5, -90.4 (2×), -95.4 (2×), -85.2, -96.8, -67.7, -80, -96.2, -75, -97.4, -92.7, -97.5 (2×), -98.7 (3×), -93.4 (2×), -93.2, -89.8, -80.7, -68.3, -69.4, -80.9, -93.8, -89.3, -95, -95.7, -96.5, -98.5 (2×), -94.4, -84.9, -84, -97.3, -93.1, -99.7, -89.5, -57.9, -90.2, -84.7 (2×), -87.8, -99.3, -98.4, -55.2, -98.9 (2×), -97.1 (2×), -92.9, -87.4, -97.8 (2×), -96.9, -75.3, -94.2, -89.1, -90.9, -99.4, -82.9, -98.8, -86.6, -60.1, -21, -96.1, -79.9, -96.7, -91.4, -74.8%”, the growth (M14 melanoma; runs of 1993) is reported as “active: -61.3, -53.8, 6.03, -94.5, -79.5, -91.6, -66.9, -66.7 (2×), -96.9, -100 (6×), -84.6, -89, -90.8, -78.3, -87.7, -83.1, -99, -93.4, -87, -78.7, -23.4, -85.9, -99.6, -71.2, -82.9, -50.6, -55.6, -81.2, -57.8, -82, -78, -93, -66.4, -98.4, -68.6, -97.9, -94.4, -77.6, -96.5, -96.3, -93.2% and inactive: 15.1%” and the growth (M14 melanoma; runs of 1994) is reported as “active: -70.6, -99.5, -94.6, -99.6, -95.5, -100 (4×), -77.9, -98.8, -83.4, -90.3, -96, -31.1, -29.1, -89.3, -63.7, -88.7, -93.7, -87, -88.2, -43.4, -89.8, -92.6 (2×), -99, -82.8, -71, -70.2, -28% and inactive: 94.7%”. The growth (M14 melanoma; runs of 1995) was “active: -63, -100 (8×), -64.2, -71.3, -73.6, -97.9, -49.2, -92.5, -98.8, -71.6, -86.4, -98.1, -94.1 (2×), -64.4, -97.1, -98.7, -77.7, -92.6, -87.3, -57.8, -98.3, -47.6, -97.2 (2×), -27.4, -62.6, -58.3, -79.3%”, the growth (M14 melanoma; runs of 1996) was “active: -20.6, -35.6, -98.5, -94, -69.2, -99 (2×), -87.7, -94.9, -80.6, -99.4 (2×), -97.5, -69.4, -30.4, -98.9, -100 (4×), -66.8, -93.4, -94.5, -60.9, -30.9, -99.2, -63.8, -66.4, -77.9, -75.2, -63.4, -65.9, -34.5, -70.5, -26.8, -55.5, -89.8, -82.9, -83.5, -93.8, -96.8, -56, -86, -71.4, -98.2, -86.5, -96, -97.7, -62.4, -95.4, -86.4, -50, -64.4, -28.3, -49.2% and inactive: 96.3%, 129%” and the growth (M14 melanoma; runs of 1997) was “active: -91.1, 7.18, -65.3, -93.1, -100 (4×), -97.4, -53.8, -99, -98, -87.4, -98.2, -88.5, -95.8, -77.8, -98.8, -44.9, -93.4, -85.6 (2×), -98.9, -92.2, -47.8, -94.6, -89.7, -88.1 (2×), -90, -98.4, -81.3, -90.3, -79.8, -87.5, -91.4, -75.9, -34.3, -86.7, -86.9, 5.64, -97.2, -83.8, -88.9, -11.5, -94.7%”. For the same molecule, the growth (M14 melanoma; runs of 1998) was “active: -96.4, -87.3, -95.4, -100 (5×), -89.7 (2×), -7.96, -94.7, -86.8, -92.9, -74.3, -91.3, -95.3, -96.3, -87.5, -91.1, -76.8, -79.2, -78.8, -94.3, -82, -92%”, the growth (M14 melanoma; runs of 1999) was “active: -85.8, -94.7, -45.6, -87.9, -98.4, -100 (5×), -88.3, -68.4, -96.3, -59.2, 3.54, -70.2, -68, -68.6%” and the growth (M14 melanoma; runs of 2000) was “inactive: 12.6% and active: -100%, -34.7%, -85.2%”. For the same molecule, the growth (HCT-15 colon; runs of 2006) was “inactive: 65.6%, 78.4%”, the growth (HCT-15 colon; runs of 2007) was “inactive: 79.2, 98.3, 76.2, 84.1, 87.5, 83.5 (2×), 86.6, 84.5, 90.5, 93.7, 95.8, 92.9, 96.6, 110, 90.1, 82.6, 92, 81.4, 87, 77.3, 87.2, 85.1, 85.7, 88.2 (2×), 77.2, 88.5 (2×), 89.8 (2×), 90.6, 94.6, 91.2 (2×), 86, 89.3, 90.4, 88.4 (2×), 81.3, 82.9, 87.7% and active: 8.2%” and the growth (HCT-15 colon; runs of 2008) was “inactive: 91.2, 94.8, 92.1 (2×), 82.6, 83.9 (3×), 87.3, 87.9, 80.7, 82.1, 87.6 (3×), 89.6, 92.3 (2×), 89.4, 85.7 (2×), 90.6, 82.8, 86.4, 86.8, 84.8 (2×), 83, 82.9 (2×), 93.4, 85.2, 104, 84.9, 83.3, 69.7, 86.3, 90.2, 84.6, 96.1, 92, 96.3, 95, 86, 95.6, 83.5, 77, 95.2, 73, 82.7, 88.5%”. The growth (HCT-15 colon; runs of 2009) was “inactive: 82.2 (2×), 84.8, 91 (2×), 80.7, 81.3, 87.5, 86.8 (2×), 88.2, 85.3, 82.9, 84.5 (2×), 91.1, 83.3 (2×), 88, 85.5, 93.6, 86.9, 85.9, 86.3, 93.4, 86.7, 84, 87.8, 87, 78, 84.4, 79.8, 81.9, 95.6, 85.6, 75.7, 81.2, 87.7, 82.7, 76.4, 91.3, 86, 81.4, 84.9, 86.5, 86.6 (2×), 94.1, 109, 81.6, 83.4, 98.9, 95, 90.9, 77.2 (2×), 80.6, 80, 76.9, 92.2, 85.1, 78.4, 89.2, 80.8, 85.7, 87.3, 83.7, 83.6%”, the growth (HCT-15 colon; runs of 2010) was “inactive: 88.3, 84.6, 84.3, 88, 84.9, 90.4, 87.9, 83.5 (3×), 84.4, 87, 82.7, 81.4, 76.1, 80 (2×), 89.1, 90.7, 86.6, 85.7, 81.8 (2×), 91.4, 84.5, 92.7, 78.9, 81.1, 77.1, 82.8, 63.7, 80.6, 69.4, 76.9, 80.7, 79, 87.6, 88.5, 83, 80.8, 81.9, 82.6, 80.4, 85.5, 84.8, 82.3, 79.7, 76, 85.6, 90.9, 96.2%” and the growth (HCT-15 colon; runs of 2011) was “inactive: 86, 83, 83.4, 81.8, 85.5, 81.9 (2×), 79.1, 90.9, 81, 86.7, 87.1, 84 (2×), 88.5, 92.5, 94.6 (2×), 92.3, 90.1, 95.9, 97, 91.1 (2×), 86.3 (2×), 87.2 (3×), 94.3, 93.1, 85.9 (2×), 82.8, 85.3 (2×), 78.7, 80.1, 88.4, 91.6, 90.2, 87.6 (2×), 86.2 (2×), 89, 85.1, 80.7, 86.6, 89.3, 90, 87.8, 88.3, 83.1, 86.5, 85.6, 80.2%”.
